Data as given in the supplement of paper PMC3334620.
Whole data set: some 33,000 sequences, median “E-score (-0.5 to 0.5)” near -0.035, cut for the highest 2% near 0.35. The list shows a part of the results.

molecular target: T1, Pdr3 (UniProt P33200); assay: PBM E-score (8-mer binding enrichment) (E-score (-0.5 to 0.5)); higher = stronger / more preferred TF binding; most listed sequences are background and not binding sites; conditions: protein concentration: 200 nM; construct: GST-full length
T1 sequence: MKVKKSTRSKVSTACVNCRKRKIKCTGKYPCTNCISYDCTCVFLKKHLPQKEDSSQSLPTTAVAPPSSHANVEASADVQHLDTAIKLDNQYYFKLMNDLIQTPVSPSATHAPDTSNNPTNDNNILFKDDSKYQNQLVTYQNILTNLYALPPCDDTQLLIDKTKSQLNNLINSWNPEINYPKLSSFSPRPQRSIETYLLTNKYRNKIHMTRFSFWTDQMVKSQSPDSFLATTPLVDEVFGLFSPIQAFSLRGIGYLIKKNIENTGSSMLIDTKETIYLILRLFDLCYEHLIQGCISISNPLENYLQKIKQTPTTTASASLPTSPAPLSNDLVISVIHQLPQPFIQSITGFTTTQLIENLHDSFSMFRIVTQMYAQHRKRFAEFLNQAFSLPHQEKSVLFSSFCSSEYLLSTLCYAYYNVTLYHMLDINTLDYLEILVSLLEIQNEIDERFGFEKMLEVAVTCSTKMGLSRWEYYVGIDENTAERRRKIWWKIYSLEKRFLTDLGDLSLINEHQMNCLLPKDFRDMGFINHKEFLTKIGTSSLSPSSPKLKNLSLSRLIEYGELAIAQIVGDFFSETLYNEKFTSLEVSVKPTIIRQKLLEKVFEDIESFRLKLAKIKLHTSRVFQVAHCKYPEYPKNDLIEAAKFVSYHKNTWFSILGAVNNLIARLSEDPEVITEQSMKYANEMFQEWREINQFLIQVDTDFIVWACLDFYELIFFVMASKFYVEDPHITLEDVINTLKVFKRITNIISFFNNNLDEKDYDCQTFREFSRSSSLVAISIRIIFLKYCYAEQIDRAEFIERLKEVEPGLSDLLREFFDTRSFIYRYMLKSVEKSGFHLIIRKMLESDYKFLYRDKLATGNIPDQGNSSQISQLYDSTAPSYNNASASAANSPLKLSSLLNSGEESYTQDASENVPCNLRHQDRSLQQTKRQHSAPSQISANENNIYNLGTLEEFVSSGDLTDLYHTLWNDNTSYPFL
How it was run: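 E-scores (a modified Wilcoxon-Mann-Whitney statistic) were assigned by the Universal PBM Analysis Suite to every ungapped eight-base word pooled with its reverse complement. The input came from universal all-10-mer Agilent arrays made double-stranded by primer extension and probed with GST-tagged yeast transcription factors at about 100-200 nM. Fluorescent anti-GST detected bound protein, and masliner normalised the scans.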

Row | Sequence | PBM E-score
1 | CTTAAAGA | -0.238
2 | CATAACAG | -0.265
3 | GCCCACCA | -0.11
4 | CCCAAGCG | 0.00643
5 | AACTTGTA | -0.15
6 | ATTAACAC | 0.0702
7 | CTTTGGTA | -0.113
8 | ACCATAAA | -0.0954
9 | CCCAATAC | -0.0296
10 | GGAGTGTA | -0.0955
11 | ATTTACCC | 0.121
12 | GAGTGTCA | 0.115
13 | AGAGTGCA | -0.171
14 | TAGACGAA | -0.215
15 | AAGAACCC | -0.00045
16 | AATTGTAA | -0.204
17 | ACAGGGAA | -0.138
18 | AGCCCAGC | -0.129
19 | TGTTACAA | -0.00396
20 | GTACTCGA | -0.0779
21 | GAGATCTA | -0.19
22 | CATATGAA | 0.0687
23 | AGCTAATC | -0.0527
24 | TAGCCAGA | -0.201
25 | GTCCACGA | -0.114

Row | Sequence | PBM E-score
26 | GGAGCTAC | -0.0989
27 | AGAGTCTG | -0.311
28 | ACGCTCGC | -0.106
29 | AAAGGATT | -0.112
30 | CAACCACA | 0.0554
31 | CTGACAAA | -0.221
32 | AAAAGGCA | 0.0241
33 | AAAGTGCT | -0.132
34 | AGCACCGA | 0.0432
35 | ATACTGGA | 0.022
36 | AACGTACT | -0.0185
37 | TCCAATAA | 0.104
38 | AAGGCAAT | -0.00094
39 | ATAGCCTG | -0.239
40 | AAGCCCAG | -0.108
41 | GGTGTTGA | -0.143
42 | CGCCCCGC | 0.25
43 | ACATAGAC | -0.151
44 | GACTGCAA | -0.221
45 | ACACATCC | 0.144
46 | ACCTGGGC | -0.326
47 | GGTTGAAC | 0.0522
48 | CATTAACG | 0.144
49 | AAGAATCA | 0.0654
50 | GCGTGTCC | 0.201

Row | Sequence | PBM E-score
51 | ACACATGT | 0.0162
52 | CATTCAGA | -0.146
53 | ATCCGCTA | 0.229
54 | ACTACTTG | -0.136
55 | ATTTCTAC | -0.105
56 | GCACGTGA | -0.224
57 | AACTTAAC | 0.0508
58 | CAATCCCG | 0.392
59 | GAAGCACA | 0.0799
60 | ATACCGTG | 0.0655
61 | CCCCGGGG | 0.412
62 | GCACTCAA | -0.101
63 | ACCCCGGA | 0.352
64 | TGTACACA | -0.266
65 | ATTAAGAC | -0.289
66 | CCTGATTC | 0.0544
67 | ATATCACG | -0.0463
68 | CGCATAAA | -0.074
69 | CGCGTCAG | -0.0796
70 | GAGAGGAA | -0.128
71 | ATACTCAT | -0.11
72 | ACCAGAAC | 0.0531
73 | AGAAAGGA | -0.191
74 | ATTTAACA | 0.00265
75 | AATCAAAT | 0.116

Row | Sequence | PBM E-score
76 | AGGCAGGC | -0.0703
77 | ATGGACAA | -0.148
78 | AGGGTATG | -0.154
79 | CCAATTCC | 0.279
80 | ATTATCGC | 0.00543
81 | CGGAAAAA | 0.403
82 | AACTGTGG | 0.073
83 | AAGGCATC | -0.216
84 | CTAAAGCA | -0.0427
85 | ATGTATCG | 0.0406
86 | ATCAGGTG | -0.0026
87 | GTGTAAAC | -0.142
88 | CTAGAGTC | -0.359
89 | AGAGACTC | -0.155
90 | CGAGTGCG | 0.2
91 | AGCCAACC | 0.0898
92 | AAGACGAC | -0.103
93 | TGAGATCA | 0.0786
94 | CTTCTTCC | 0.0547
95 | ACCGGGGA | 0.0294
96 | ACACTGCA | -0.0473
97 | ACGTTTGG | -0.248
98 | AGTAGCTC | 0.0104
99 | ATATGCCG | 0.208
100 | TAGTTTCA | 0.0772

Row | Sequence | PBM E-score
101 | GTAAATAA | -0.128
102 | GACAGTCA | 0.00968
103 | AGGACATA | -0.214
104 | GACATAAA | -0.0161
105 | GTCCTGTA | -0.0662
106 | GTATCCTA | -0.125
107 | CACAGACG | -0.141
108 | TACATGAA | -0.132
109 | CACCTCGG | 0.276
110 | ACTGGACT | -0.295
111 | GGAACTCC | 0.366
112 | GTACCCGA | 0.103
113 | ACACTGCT | -0.268
114 | CTCTCCGA | 0.179
115 | GATACACA | -0.123
116 | CATTTTGG | -0.159
117 | CTAAATCA | -0.153
118 | AGAAATAG | -0.195
119 | ACTTCTAA | -0.097
120 | GCCCGTCC | 0.187
121 | TACTTGCA | -0.102
122 | ACGGTACG | 0.0442
123 | CCTACATA | -0.14
124 | GGGTCTGA | 0.0223
125 | AGTCGAAA | -0.085

Row | Sequence | PBM E-score
126 | AGGTTCTG | -0.271
127 | GTGGCATA | -0.0548
128 | TGCCAGAA | -0.148
129 | GAGAAGAA | 0.0956
130 | ACTGAGAG | -0.107
131 | AGCGATTG | -0.00592
132 | ACTTTAAT | -0.0155
133 | ATGCAGTA | 0.044
134 | GAAAGAGA | 0.079
135 | ACCGTCCC | 0.171
136 | CTTCTAGA | -0.249
137 | ATCCGCTG | 0.22
138 | AACTTCCG | 0.388
139 | GTATTCAA | 0.0848
140 | ACGGAGCG | 0.337
141 | AACAGAAT | -0.162
142 | CACCTGCG | -0.0389
143 | ATATTGGC | 0.0402
144 | CCGGGTGA | 0.404
145 | CTCGGCAG | 0.219
146 | AAGTGCGT | -0.216
147 | AAGCACCT | -0.183
148 | GCATAAAA | -0.0786
149 | AAGATAGC | -0.00731
150 | AAGCTTTG | -0.0525

Row | Sequence | PBM E-score
151 | ATGTGAGC | -0.179
152 | TCAGGTCA | -0.0755
153 | ACTCGTGA | -0.248
154 | CGTCCCGC | 0.338
155 | AACGTTCG | 0.0638
156 | GCTTCGAC | -0.155
157 | ACGTAGGG | -0.276
158 | ATAGGCTG | -0.237
159 | AGTCAGGG | -0.388
160 | AGCCTTGC | -0.071
161 | ACTATGTC | -0.0403
162 | CCAAATGG | -0.0949
163 | AAGGCGTA | -0.289
164 | CGGTTCGC | 0.0341
165 | CGAGCAGC | 0.038
166 | GAGGATCA | -0.0387
167 | GTGGTTGA | -0.193
168 | AGATGGAA | 0.059
169 | AATTTAGT | 0.112
170 | TGCGGCCA | 0.0662
171 | ACCCCTAC | -0.242
172 | AATAGGTG | -0.229
